Some of the results follow. These are noisy estimates, calculated here from bound and input reads.
molecular target: T1, Pho4 (S. cerevisiae) (UniProt P07270); assay: relative binding free energy (BET-seq); higher = weaker binding; conditions: reference: library average
T1 sequence: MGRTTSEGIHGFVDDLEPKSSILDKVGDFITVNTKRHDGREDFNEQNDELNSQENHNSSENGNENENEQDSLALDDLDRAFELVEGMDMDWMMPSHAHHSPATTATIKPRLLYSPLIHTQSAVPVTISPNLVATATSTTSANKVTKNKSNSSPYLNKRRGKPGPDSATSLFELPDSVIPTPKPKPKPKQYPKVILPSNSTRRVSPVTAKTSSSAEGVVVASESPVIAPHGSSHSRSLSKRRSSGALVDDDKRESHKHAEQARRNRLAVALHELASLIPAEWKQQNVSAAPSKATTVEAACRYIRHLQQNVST

Sequence | relative binding free energy
TAATTCACGTGTGAAG | 0.26 kcal/mol
GTGGTCACGTGGGAGC | -0.07 kcal/mol
TTTTTCACGTGAAAGG | 0.39 kcal/mol
AGTGGCACGTGGAGAT | 0.02 kcal/mol
TGGGACACGTGCGGGG | 0.07 kcal/mol
TTGGGCACGTGGCATT | -0.07 kcal/mol
GGCTTCACGTGTGCGA | 0.46 kcal/mol
TATGTCACGTGTCCTG | 0.19 kcal/mol
GGTGTCACGTGGCGTG | 0.07 kcal/mol
TTTGTCACGTGGACTA | 0.08 kcal/mol
ACGGGCACGTGTGGTT | -0.01 kcal/mol
AAATGCACGTGGAGTT | 0.11 kcal/mol
TGGTCCACGTGGTGAA | 0.09 kcal/mol
GATGTCACGTGACTTT | 0.38 kcal/mol
TGTTGCACGTGGTCAT | -0.03 kcal/mol
AACTTCACGTGTTGGG | 0.31 kcal/mol
TTGGACACGTGTCGTG | 0.11 kcal/mol
AATTACACGTGGGTGT | 0.09 kcal/mol
AGTAACACGTGGTGGG | -0.09 kcal/mol
TGACACACGTGGGGGT | -0.21 kcal/mol
AGATTCACGTGGGTAA | 0.11 kcal/mol
GATGCCACGTGTGGGG | -0.09 kcal/mol
ATTGACACGTGACGGA | 0.2 kcal/mol

Sequence | relative binding free energy
GTGGTCACGTGTTGCT | 0.18 kcal/mol
AGGTCCACGTGGGAGG | -0.13 kcal/mol
GGAGACACGTGGAGTA | 0.01 kcal/mol
ATAGGCACGTGGCGAG | -0.16 kcal/mol
TGGGTCACGTGATGGC | 0.13 kcal/mol
TTTGGCACGTGAGGGC | 0.2 kcal/mol
AGGGACACGTGTATTT | 0.01 kcal/mol
AGGTGCACGTGTGTCT | -0.2 kcal/mol
GAGTACACGTGAGTGG | 0.28 kcal/mol
ATGGTCACGTGCGAGT | 0.13 kcal/mol
TCTTGCACGTGATGTT | 0.21 kcal/mol
CAATTCACGTGGGTGA | 0.09 kcal/mol
AGGTGCACGTGGGAAG | -0.08 kcal/mol
TAAGGCACGTGTTTGA | -0.24 kcal/mol
TCTGTCACGTGTAGTG | 0.15 kcal/mol
GTGGTCACGTGTGGTG | 0.23 kcal/mol
GTAGGCACGTGAGGGA | 0.22 kcal/mol
GATGTCACGTGTGCTT | 0.31 kcal/mol
CTAGTCACGTGTTATT | 0.01 kcal/mol
TAGTGCACGTGAAGGG | 0.2 kcal/mol
TCAGTCACGTGTTGGT | 0.1 kcal/mol
GATTACACGTGTAGTA | 0.08 kcal/mol
GCGTGCACGTGGTGGG | -0.05 kcal/mol

Sequence | relative binding free energy
GATGTCACGTGGTCTA | 0.11 kcal/mol
CTGGGCACGTGGGGAT | -0.16 kcal/mol
TGGCTCACGTGTATAT | 0.26 kcal/mol
CTAGTCACGTGGAATT | 0.28 kcal/mol
TTAAGCACGTGGTGCG | -0.27 kcal/mol
GTAATCACGTGATTTT | 0.22 kcal/mol
TAGGACACGTGCGGGG | 0.01 kcal/mol
TTAGACACGTGAGTCT | 0.17 kcal/mol
GTAATCACGTGTTGTA | 0.22 kcal/mol
GTGTACACGTGAATTT | 0.31 kcal/mol
AGATGCACGTGTGCTG | -0.01 kcal/mol
ATAGTCACGTGTTACT | 0.15 kcal/mol
TTTTACACGTGGTGTG | 0.11 kcal/mol
GGGAGCACGTGGGGGC | -0.18 kcal/mol
ACCTTCACGTGTTTGT | 0.36 kcal/mol
GTATGCACGTGTGGTG | 0.08 kcal/mol
TGGCTCACGTGCATTG | 0.17 kcal/mol
AGTTGCACGTGAGCAG | 0.17 kcal/mol
ACGGGCACGTGAATAG | 0.23 kcal/mol
CTTGACACGTGCGGGT | -0.07 kcal/mol
TGAGTCACGTGGTAAA | 0.19 kcal/mol
AGGTGCACGTGAGACG | 0.18 kcal/mol
AGACACACGTGGGAGG | -0.06 kcal/mol

Sequence | relative binding free energy
TATTTCACGTGATACG | 0.3 kcal/mol
AGGGTCACGTGGGGCC | -0.06 kcal/mol
ACGGGCACGTGATATT | 0.1 kcal/mol
CGGGGCACGTGCTTGT | -0.24 kcal/mol
TTTCTCACGTGGTTAC | 0.23 kcal/mol
TGTTACACGTGTGTAC | 0.07 kcal/mol
GATTGCACGTGGTGGG | 0.03 kcal/mol
TCGGACACGTGGGTGA | -0.21 kcal/mol
TATTTCACGTGTTACG | 0.21 kcal/mol
CGTGTCACGTGGTTTT | 0.07 kcal/mol
TTGCTCACGTGGTAGC | 0.13 kcal/mol
GGGCCCACGTGTGGTA | 0.12 kcal/mol
TCGGGCACGTGGCTGG | -0.14 kcal/mol
GCGGACACGTGGAGGT | 0.12 kcal/mol
CTTTTCACGTGAGTAG | 0.14 kcal/mol
AGGAGCACGTGGCGTA | -0.24 kcal/mol
TAGTACACGTGTCGTA | 0.03 kcal/mol
GGACACACGTGGTATG | -0.02 kcal/mol
ATCAACACGTGAGGTT | 0.31 kcal/mol
ATTCGCACGTGTTATT | 0.09 kcal/mol
TTTTACACGTGATGGT | 0.21 kcal/mol
TTACACACGTGGGGTG | -0.19 kcal/mol
GTAGTCACGTGTTAGT | 0.13 kcal/mol

Sequence | relative binding free energy
CATGTCACGTGTAGTC | 0.18 kcal/mol
GTGGACACGTGCGTAG | 0.02 kcal/mol
TATTCCACGTGTATGT | 0.06 kcal/mol
CTTTGCACGTGTTTGT | -0.03 kcal/mol
CGCGGCACGTGGCGGG | -0.19 kcal/mol
GATAGCACGTGCAGGG | -0.07 kcal/mol
TGTCACACGTGATTAG | 0.14 kcal/mol
TAGTGCACGTGTGAGA | 0.18 kcal/mol
AGGGGCACGTGAGAGT | 0.16 kcal/mol
TGTGTCACGTGACTTA | 0.28 kcal/mol
TTGAACACGTGGATGG | 0.01 kcal/mol
CTTTGCACGTGTAAAG | 0.17 kcal/mol
CTATACACGTGTTGGG | -0.03 kcal/mol
ATATGCACGTGTGCGT | -0.09 kcal/mol
TAATGCACGTGGATGG | -0.05 kcal/mol
GATTACACGTGTGTAG | 0.24 kcal/mol
TTCGTCACGTGAATTG | 0.24 kcal/mol
GTGCTCACGTGGGATG | 0.19 kcal/mol
TCTTACACGTGTTGTT | 0.01 kcal/mol
TGATGCACGTGGTGAG | -0.03 kcal/mol
GTGCGCACGTGTGCTG | -0.14 kcal/mol
TTTGCCACGTGAAGTG | 0.09 kcal/mol
GGAAGCACGTGTATGT | 0.03 kcal/mol

From the BET-seq Pho4 binding data (Le et al. 2018)
